Cytotoxicity call data for eleven compounds are collected here from the antibiotic and cytotoxicity screens of Wong et al. (2023).

The list shows a part of the results.

In this assay the test system is HSkMC (human skeletal muscle cells). Description: cytotoxicity call (relative viability < 0.9). Conditions: 10 µM.
Turning to `COc1ccc(S(=O)(=O)Nc2ccc3c(c2)C(=O)N([C@H](C)CO)C[C@H](C)[C@@H](CN(C)C(=O)NC(C)C)O3)cc1`, the cytotoxicity call was “inactive”. As for `C[C@@H]1CCCCO[C@@H](CN(C)CC2CC2)[C@@H](C)CN([C@H](C)CO)C(=O)c2cc(NS(=O)(=O)c3ccc(Cl)cc3)ccc2O1`, the cytotoxicity call is “inactive”.

For `CC(C)(C)Cc1ccc(OCCCC(=O)O)c(CC(C)(C)C)c1`, the cytotoxicity call was “inactive”. Under `COc1ccc(NC(=O)N(C)C[C@H]2OCCCC[C@@H](C)Oc3ccc(NS(=O)(=O)c4cccs4)cc3C(=O)N([C@@H](C)CO)C[C@@H]2C)cc1` stands “inactive”; under `C[C@H]1CN([C@@H](C)CO)C(=O)c2cc(NC(=O)Nc3ccc(C(F)(F)F)cc3)ccc2O[C@@H]1CN(C)C(=O)Nc1ccccc1`, “inactive”. For the compound `C[C@H](CO)N1C[C@H](C)[C@@H](CN(C)Cc2ccc(-c3ccccc3)cc2)Oc2c(NS(=O)(=O)c3ccc(F)cc3)cccc2C1=O`, the cytotoxicity call is “inactive”.

With `C[C@H]1CCCCO[C@H](CN(C)C(=O)Nc2ccccc2)[C@@H](C)CN([C@@H](C)CO)C(=O)c2cc(NC(=O)C3CCCCC3)ccc2O1`, the cytotoxicity call was “inactive”. On to `CC(C)NC(=O)Nc1ccc2c(c1)C(=O)N(C)[C@H]1CC[C@H](CC(=O)NCc3ccc(F)cc3)O[C@H]1CO2`, for which the cytotoxicity call is “inactive”. Then `COc1ccc(-n2cc(C(=O)NO)nn2)cc1`, with “active”; and `O=C(C[C@@H]1CC[C@H]2[C@@H](COC[C@H](O)CN2S(=O)(=O)c2ccc(Cl)cc2)O1)NCC1CCCCC1`, with “inactive”; and `COc1ccc2c3c([nH]c2c1)[C@H](CO)N(C[C@]13CCN(CC1)C(=O)c1cnccn1)C(=O)c1cnccn1`, with “inactive”.
